Measured values as given in the supplement of paper PMC9588766.
Structures can show the parent of a compound that is named as a salt. In all, about 1,900 compounds were measured (“cell viability of compound + 1 nM pemigatinib relative to pemigatinib-only (DMSO) wells”: median about 0.95, lowest 2% from about 0.22 on). The list shows a part of the results.

system: PDC-DUC18828; assay: cell viability of compound + 1 nM pemigatinib relative to pemigatinib-only (DMSO) wells (fraction); PDC-DUC18828 is a patient-derived cholangiocarcinoma cell line; higher = less growth inhibition; conditions: first compound 1 µM; pemigatinib concentration 1 nM; 72 h
Procedure: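 Selleck Bioactive library screen in the patient-derived FGFR2 fusion-positive ICC cell line PDC-DUC18828 (500 cells/well). Each compound was tested at 1 uM with 1 nM pemigatinib, in triplicate, for 72 h. Viability was read by CellTiter-Glo and normalised to plate DMSO controls. Value is the paper's averaged normalised viability.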

Structure (SMILES) | cell viability
O=C(O)CCCc1ccc(N(CCCl)CCCl)cc1 [Chloroambucil] + CCN1C(=O)N(c2c(F)c(OC)cc(OC)c2F)Cc2cnc3[nH]c(CN4CCOCC4)cc3c21 [pemigatinib] | 0.958
CC[C@@H](C(N)=O)N1CCCC1=O [Levetiracetam] + CCN1C(=O)N(c2c(F)c(OC)cc(OC)c2F)Cc2cnc3[nH]c(CN4CCOCC4)cc3c21 [pemigatinib] | 0.944
COc1ccc(C(=O)N2CCCC2=O)cc1 [Aniracetam] + CCN1C(=O)N(c2c(F)c(OC)cc(OC)c2F)Cc2cnc3[nH]c(CN4CCOCC4)cc3c21 [pemigatinib] | 0.918
O=C(O[C@H]1C[C@H]2CC[C@@H](C1)[N+]21CCCC1)C(O)(c1ccccc1)c1ccccc1 [Trospium chloride] + CCN1C(=O)N(c2c(F)c(OC)cc(OC)c2F)Cc2cnc3[nH]c(CN4CCOCC4)cc3c21 [pemigatinib] | 0.901
CN(C)Cc1c[nH]c2ccccc12 [Gramine] + CCN1C(=O)N(c2c(F)c(OC)cc(OC)c2F)Cc2cnc3[nH]c(CN4CCOCC4)cc3c21 [pemigatinib] | 0.986
NCC(O)c1ccc(O)cc1 (racemic) [(+,-)-Octopamine HCl] + CCN1C(=O)N(c2c(F)c(OC)cc(OC)c2F)Cc2cnc3[nH]c(CN4CCOCC4)cc3c21 [pemigatinib] | 0.939
C[C@@H]1O[C@@H](O[C@H]2C[C@@H](O)[C@]3(CO)[C@H]4[C@H](O)C[C@]5(C)[C@@H](C6=CC(=O)OC6)CC[C@]5(O)[C@@H]4CC[C@]3(O)C2)[C@H](O)[C@H](O)[C@H]1O [Ouabain] + CCN1C(=O)N(c2c(F)c(OC)cc(OC)c2F)Cc2cnc3[nH]c(CN4CCOCC4)cc3c21 [pemigatinib] | 0.109
CCN(C)C(=O)Oc1cccc([C@H](C)N(C)C)c1 [Rivastigmine Tartrate] + CCN1C(=O)N(c2c(F)c(OC)cc(OC)c2F)Cc2cnc3[nH]c(CN4CCOCC4)cc3c21 [pemigatinib] | 1.05
CCC1(c2ccc(N)cc2)CCC(=O)NC1=O (stereo not given) [Aminoglutethimide] + CCN1C(=O)N(c2c(F)c(OC)cc(OC)c2F)Cc2cnc3[nH]c(CN4CCOCC4)cc3c21 [pemigatinib] | 1.03
C[C@]12CC[C@H](O)C[C@@H]1CC[C@@H]1[C@@H]2CC[C@]2(C)C(=O)CC[C@@H]12 [Epiandrosterone] + CCN1C(=O)N(c2c(F)c(OC)cc(OC)c2F)Cc2cnc3[nH]c(CN4CCOCC4)cc3c21 [pemigatinib] | 0.972
C[N+]1(C)[C@@H]2C[C@@H](OC(=O)[C@H](CO)c3ccccc3)C[C@H]1[C@@H]1O[C@@H]12 [Methscopolamine] + CCN1C(=O)N(c2c(F)c(OC)cc(OC)c2F)Cc2cnc3[nH]c(CN4CCOCC4)cc3c21 [pemigatinib] | 0.984
CN(C)C(=O)Oc1cc(OC(=O)N(C)C)cc(C(O)CNC(C)(C)C)c1 (stereo not given) [Bambuterol HCl] + CCN1C(=O)N(c2c(F)c(OC)cc(OC)c2F)Cc2cnc3[nH]c(CN4CCOCC4)cc3c21 [pemigatinib] | 0.99
CNCC(=O)c1ccc(O)c(O)c1 [Adrenalone HCl] + CCN1C(=O)N(c2c(F)c(OC)cc(OC)c2F)Cc2cnc3[nH]c(CN4CCOCC4)cc3c21 [pemigatinib] | 0.881
CC(C)N(CCNC(=O)CN1CCCC1=O)C(C)C [Pramiracetam] + CCN1C(=O)N(c2c(F)c(OC)cc(OC)c2F)Cc2cnc3[nH]c(CN4CCOCC4)cc3c21 [pemigatinib] | 0.955
COC(=O)C1=CCCN(C)C1 [Arecoline] + CCN1C(=O)N(c2c(F)c(OC)cc(OC)c2F)Cc2cnc3[nH]c(CN4CCOCC4)cc3c21 [pemigatinib] | 1.02
C[C@]12CC[C@H]3[C@@H](CC[C@@]45O[C@@H]4C(O)=C(C#N)C[C@]35C)[C@@H]1CC[C@@H]2O [Trilostane] + CCN1C(=O)N(c2c(F)c(OC)cc(OC)c2F)Cc2cnc3[nH]c(CN4CCOCC4)cc3c21 [pemigatinib] | 0.971
C[C@]12N[C@H](Cc3ccccc31)c1ccccc12 [MK-801 (Dizocilpine)] + CCN1C(=O)N(c2c(F)c(OC)cc(OC)c2F)Cc2cnc3[nH]c(CN4CCOCC4)cc3c21 [pemigatinib] | 0.932
CC(=O)Nc1ccc(OC[C@](C)(O)C(=O)Nc2ccc([N+](=O)[O-])c(C(F)(F)F)c2)cc1 [Andarine] + CCN1C(=O)N(c2c(F)c(OC)cc(OC)c2F)Cc2cnc3[nH]c(CN4CCOCC4)cc3c21 [pemigatinib] | 0.994
C[C@](O)(COc1ccc(C#N)cc1)C(=O)Nc1ccc(C#N)c(C(F)(F)F)c1 + CCN1C(=O)N(c2c(F)c(OC)cc(OC)c2F)Cc2cnc3[nH]c(CN4CCOCC4)cc3c21 [pemigatinib] | 0.989
C#C[C@]1(O)C=C[C@H]2[C@@H]3CCC4=CC(=O)CC[C@@H]4[C@H]3CC[C@@]21CC [Gestodene] + CCN1C(=O)N(c2c(F)c(OC)cc(OC)c2F)Cc2cnc3[nH]c(CN4CCOCC4)cc3c21 [pemigatinib] | 0.947

Structure (SMILES) | cell viability
NCC(=O)O.[C-]#[O+].[C-]#[O+].[C-]#[O+].[Cl][Ru] + CCN1C(=O)N(c2c(F)c(OC)cc(OC)c2F)Cc2cnc3[nH]c(CN4CCOCC4)cc3c21 [pemigatinib] | 0.935
Cc1cccc([C@H](C)c2c[nH]cn2)c1C [Dexmedetomidine] + CCN1C(=O)N(c2c(F)c(OC)cc(OC)c2F)Cc2cnc3[nH]c(CN4CCOCC4)cc3c21 [pemigatinib] | 0.898
C[C@@]12N[C@@H](Cc3ccccc31)c1ccccc12 [(-)-MK 801 Maleate] + CCN1C(=O)N(c2c(F)c(OC)cc(OC)c2F)Cc2cnc3[nH]c(CN4CCOCC4)cc3c21 [pemigatinib] | 0.926
COc1ccc2c(c1)/C(=C/c1cnc[nH]1)C(=O)N2 + CCN1C(=O)N(c2c(F)c(OC)cc(OC)c2F)Cc2cnc3[nH]c(CN4CCOCC4)cc3c21 [pemigatinib] | 1.03
COc1ccc(C[C@H]2NC[C@H](O)[C@H]2OC(C)=O)cc1 [Anisomycin] + CCN1C(=O)N(c2c(F)c(OC)cc(OC)c2F)Cc2cnc3[nH]c(CN4CCOCC4)cc3c21 [pemigatinib] | 0.22
CCC(COC(=O)c1cc(OC)c(OC)c(OC)c1)(c1ccccc1)N(C)C (stereo not given) [Trimebutine] + CCN1C(=O)N(c2c(F)c(OC)cc(OC)c2F)Cc2cnc3[nH]c(CN4CCOCC4)cc3c21 [pemigatinib] | 1.04
C/C=C(\C)C(=O)N[C@@H](c1ccccc1)[C@@H](O)C(=O)O[C@H]1C[C@@]2(O)[C@@H](OC(=O)c3ccccc3)[C@@H]3[C@]4(OC(C)=O)CO[C@@H]4C[C@H](O)[C@@]3(C)C(=O)[C@H](OC(C)=O)C(=C1C)C2(C)C [Cephalomannine] + CCN1C(=O)N(c2c(F)c(OC)cc(OC)c2F)Cc2cnc3[nH]c(CN4CCOCC4)cc3c21 [pemigatinib] | 0.19
NCCc1c[nH]c2ccc(O)cc12 [Serotonin HCl] + CCN1C(=O)N(c2c(F)c(OC)cc(OC)c2F)Cc2cnc3[nH]c(CN4CCOCC4)cc3c21 [pemigatinib] | 0.96
C[C@@H]1CC[C@H]2[C@@H](C)C(=O)O[C@@H]3O[C@@]4(C)CC[C@@H]1[C@]32OO4 [Artemisinin] + CCN1C(=O)N(c2c(F)c(OC)cc(OC)c2F)Cc2cnc3[nH]c(CN4CCOCC4)cc3c21 [pemigatinib] | 0.96
Cc1c(Cl)c(OCC(=O)N2CCN(C)CC2)nc2sc(C(=O)NC3CC3)c(N)c12 + CCN1C(=O)N(c2c(F)c(OC)cc(OC)c2F)Cc2cnc3[nH]c(CN4CCOCC4)cc3c21 [pemigatinib] | 1.05
O=C(Oc1ccc([N+](=O)[O-])cc1)N1CCC(C(O)(c2ccc3c(c2)OCO3)c2ccc3c(c2)OCO3)CC1 + CCN1C(=O)N(c2c(F)c(OC)cc(OC)c2F)Cc2cnc3[nH]c(CN4CCOCC4)cc3c21 [pemigatinib] | 0.961
O=C1CCC[C@@H]2[C@H]3CCCN4CCC[C@@H](CN12)[C@@H]34 [(+)-Matrine] + CCN1C(=O)N(c2c(F)c(OC)cc(OC)c2F)Cc2cnc3[nH]c(CN4CCOCC4)cc3c21 [pemigatinib] | 0.933
Cc1cccc(C)c1NC1=NCCCS1 [Xylazine HCl] + CCN1C(=O)N(c2c(F)c(OC)cc(OC)c2F)Cc2cnc3[nH]c(CN4CCOCC4)cc3c21 [pemigatinib] | 0.954
O=C(O[C@H]1C[N+]2(CCCOc3ccccc3)CCC1CC2)C(O)(c1cccs1)c1cccs1 [Aclidinium Bromide] + CCN1C(=O)N(c2c(F)c(OC)cc(OC)c2F)Cc2cnc3[nH]c(CN4CCOCC4)cc3c21 [pemigatinib] | 0.927
CN[C@@H]1C[C@H]2O[C@@](C)([C@@H]1OC)n1c3ccccc3c3c4c(c5c6ccccc6n2c5c31)C(=O)NC4 [Staurosporine] + CCN1C(=O)N(c2c(F)c(OC)cc(OC)c2F)Cc2cnc3[nH]c(CN4CCOCC4)cc3c21 [pemigatinib] | 0.116
CC[C@@H]1/C=C/C=C/C[C@H](C)[C@H](O)[C@](C)(O)C(=O)[C@H](C)[C@@H](O)[C@H](C)C(=O)[C@H](C)[C@@H](O)[C@H](C)/C=C/C(=O)O[C@H]2[C@@H](C)[C@@H](CC1)O[C@@]1(CC[C@@H](C)[C@@H](C[C@H](C)O)O1)[C@@H]2C [Oligomycin A] + CCN1C(=O)N(c2c(F)c(OC)cc(OC)c2F)Cc2cnc3[nH]c(CN4CCOCC4)cc3c21 [pemigatinib] | 0.71
Cc1cc(SCc2sc(-c3ccc(C(F)(F)F)c(F)c3)nc2C)ccc1OCC(=O)O + CCN1C(=O)N(c2c(F)c(OC)cc(OC)c2F)Cc2cnc3[nH]c(CN4CCOCC4)cc3c21 [pemigatinib] | 1.04
CC(C)(C)[C@]1(O)CC2OC(=O)CC23C(=O)OC2OC(=O)[C@H](O)C231 (stereo not given in full) [Bilobalide] + CCN1C(=O)N(c2c(F)c(OC)cc(OC)c2F)Cc2cnc3[nH]c(CN4CCOCC4)cc3c21 [pemigatinib] | 0.908
O=P1(NCCCl)OCCCN1CCCl (stereo not given) [Ifosfamide] + CCN1C(=O)N(c2c(F)c(OC)cc(OC)c2F)Cc2cnc3[nH]c(CN4CCOCC4)cc3c21 [pemigatinib] | 0.936
NC(=O)CN1CCCC1=O [Piracetam] + CCN1C(=O)N(c2c(F)c(OC)cc(OC)c2F)Cc2cnc3[nH]c(CN4CCOCC4)cc3c21 [pemigatinib] | 0.907
